Experimental data published in PubChem BioAssay AID1508642 (National Center for Advancing Translational Sciences (NCATS), 2021).
Hit rate of the full screen: of about 43,000 compounds, about 200 (0.47%) were called active. Inconclusive results (about 12%) are left out. The call rests on the fitted dose curve; in most records, active means well fitted cell-killing curve with a large enough effect; inconclusive means small, poorly fitted or top-dose-only effect, or effect the other way; inactive means flat fitted curve, though single readings scatter. Some of the results follow.

Test: Cell viability qHTS assay in S16 Pmp22-F2sN cells; further: nearly all actives have a fitted effect of over 65% in size
Settings: S16 Pmp22-F2sN Schwann cells (luciferase reporters placed in the Pmp22 gene) viability, CellTiter-Glo, 24 h; series mostly up to 57.5 µM; activity change, negative = cytotoxicity: at the top concentration
How it was run: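 Seed 500-1,000 S16 Pmp22-F2sN cells per well in phenol-red-free DMEM with 10% heat-inactivated FBS; pin-add 23 nL compound; incubate 24 h at 37C; add CellTiter-Glo, wait 15 min protected from light; read luminescence.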
On the % scale 0 is the no-effect control and ±100 the full control effect.

SMILES | activity change, negative = cytotoxicity
Cc1nn2c(-c3cccc(NC(=O)c4ccc(Cl)cc4)c3)nnc2c2ccccc12 | inactive: 12.6%
COc1ccc(CCNC(=O)CCS(=O)(=O)c2ccc3c(c2)oc(=O)n3C)cc1OC | inactive: 5.35%
Cc1ccc(N2CCN(C(=O)c3cn(C)c4ccc(S(=O)(=O)N(C)C5CCCCC5)cc4c3=O)CC2C)cc1 (centres undefined) | inactive: 2.73%
CCOC(=O)c1c(C)[nH]c(CCC(=O)Nc2ccccc2C(=O)OC)c1C | inactive: 19.9%
CC(C)C(=O)Nc1ccc2nc(SCCOc3ccccc3)sc2c1 | inactive: -7.72%
CCn1c(=O)n(CC)c2cc(N3CCCCC3)c(NC(=O)Nc3cc(Cl)ccc3OC)cc21 | inactive: -17.3%
Cc1cccc(CNC(=O)c2ccc(Cn3c(=O)c4cccn4c4cccnc43)cc2)c1 | inactive: 5.87%
O=C(CC1N=C2c3ccccc3N=C(SCc3ccccc3F)N2C1=O)NCc1cccs1 (centres undefined) | inactive: -1.52%
Cc1ccc(NC(=O)C(Cc2ccccc2)NS(=O)(=O)c2cccc3nsnc23)c(C)c1 (centres undefined) | inactive: -10.6%
CC1CCCCN1S(=O)(=O)c1ccc2c(c1)oc(=O)n2CC(=O)Nc1ccc(Cl)cc1 (centres undefined) | inactive: 1.79%
COc1cc(C2CC(=O)Nc3c2c(=O)nc2c(C)cccn32)cc(OC)c1OC (centres undefined) | inactive: 7.76%
COc1cccc(NC(=O)/C(C#N)=C\c2cn(Cc3ccc(Cl)cc3)c3ccccc23)c1 | inactive: 4.77%
CCc1ccc(-c2nn(CC(=O)NC3CCCCC3)c3c2cnc2ccc(OC)cc23)cc1 | inactive: 28.6%
Cc1ccc(Cl)cc1NC(=O)C(=O)NCCc1sc(-c2ccc(F)cc2)nc1C | inactive: 7.96%
COc1ccc(CC(=O)Nc2sc3c(c2C(=O)Nc2c(C)cccc2C)CCCCC3)cc1 | inactive: -4.43%
COc1ccc(NC(=O)CSC2=Nc3ccccc3C3=NC(CC(=O)NCc4ccc(F)cc4)C(=O)N23)cc1 (centres undefined) | inactive: -4.24%
CCCCc1ccc(C(=O)N/C(=C\c2ccc(C)cc2)C(=O)NC2CCCCC2)cc1 | inactive: 10.5%
Cc1cc(C(F)F)n2nc(C(=O)Nc3ccc(F)c(Cl)c3)nc2n1 | inactive: 2.76%
CCc1nc2ccc(C(=O)N3CCN(c4ccc(Cl)cc4)CC3)cc2nc1CC | inactive: -0.493%
CCCOc1ccc(C(=O)Nc2c(C(=O)c3ccc(C)cc3)oc3ccccc23)cc1 | inactive: 12.5%
COc1ccc(CNC(=O)Cn2c(=O)oc3cc(S(=O)(=O)N4CCCC4)ccc32)cc1 | inactive: -9.98%
Cc1cccc(S(=O)(=O)c2cn(Cc3ccccc3)c3cc(N4CCCCC4C)c(F)cc3c2=O)c1 (centres undefined) | inactive: -6.59%
Cc1ccc(NC(=O)CN2CCN(C3CCCCC3)C(=O)C2=O)cc1C | inactive: 2.33%
Cc1ccc2c(c1)sc1nc(=O)n(-c3cccc(Cl)c3)c(=O)n12 | inactive: 10.5%

SMILES | activity change, negative = cytotoxicity
CN(C(=O)NCc1noc2ccccc12)c1cccc(Cl)c1 | inactive: -3.79%
COc1ccccc1NC(=O)C1=C(C)Nc2nc(SCc3ccccc3Cl)nn2C1c1cccnc1 (centres undefined) | inactive: 2.85%
COc1ccc(CN2C(=O)c3ccccc3C2C(=O)NC2CCCCCC2)c(OC)c1 (centres undefined) | inactive: 0.563%
O=C(Cn1ncc2c3ccccc3n(Cc3cccc(Cl)c3)c2c1=O)N1CCCCC1 | inactive: -28%
CCOC(=O)C1CCN(C(=O)Cn2nc(CC)n3c(cc4occc43)c2=O)CC1 | inactive: 11.1%
Cc1cc(Cl)ccc1NS(=O)(=O)c1cc2[nH]c(=O)c(=O)[nH]c2cc1C | inactive: 4.99%
Cc1ccc(-n2c(=O)[nH]c3sc4c(c3c2=O)CCNC4)cc1C | inactive: 1.03%
CCCCc1nn2c(C)c(-c3ccc(OCC)cc3)nc2s1 | inactive: -28.8%
O=C(COc1ccccc1F)Nc1ccc2nc(SCc3ccccc3)sc2c1 | inactive: 16.7%
CCC(=O)N1CCc2cc(S(=O)(=O)NCCC(=O)Nc3cccc(SC)c3)ccc21 | inactive: -16.3%
COc1ccc2oc(=O)c(-c3nc4ccc(C)cc4[nH]3)cc2c1 | inactive: -29.5%
CCOC(=O)c1cc(-c2ccc(F)cc2)n(CCC(=O)NCc2ccc(C)cc2)c1C | inactive: -10.8%
Cc1ccc2oc(C(=O)Nc3ccc(S(=O)(=O)Nc4ncccn4)cc3)cc(=O)c2c1 | inactive: -12.4%
CCC(C(=O)Nc1cc(OC)ccc1OC)n1nc(-c2ccccc2)c2c(c1=O)CCCC2 (centres undefined) | inactive: -27.2%
CN(C)S(=O)(=O)N(CC(=O)NCCSc1ccc(Cl)cc1)c1ccccc1 | inactive: 15.2%
Cn1c2ccccc2c2c(C(=O)N3CCN(c4cccc(C(F)(F)F)c4)CC3)cn(C3CCCCC3)c(=O)c21 | inactive: -12.8%
Cc1ccc(-c2cn3nc(N4CCC(C(=O)Nc5ccccc5C)CC4)sc3n2)cc1 | inactive: -0.176%
CCOc1ccccc1CNC(=O)C1CCN(Cc2cc3ccccc3n2Cc2ccccc2)CC1 | inactive: -15.5%
CCCS(=O)(=O)c1nc(S(=O)(=O)c2ccc(C)cc2)c(NC(C)c2ccccc2)s1 (centres undefined) | inactive: -0.49%
Cc1cc(C)c2oc(C(=O)Nc3nc4ccc(Cl)cc4s3)cc(=O)c2c1 | inactive: 17.3%
Cc1cccc(Cn2c(SCc3ccc(C(=O)NCc4ccccc4F)cc3)nc3cccnc32)c1 | inactive: -19.2%
Cc1ccc(-n2ccnc(NCc3cccs3)c2=O)cc1C | inactive: 24.4%
COc1cccc(NS(=O)(=O)c2ccc3[nH]cc(C(=O)NCCc4ccc(C)cc4)c(=O)c3c2)c1 | inactive: -16.4%
CN1C(C(=O)NC(C)(C)C)=CC(c2ccc3c(c2)OCO3)=NS1(=O)=O | inactive: 1.2%

SMILES | activity change, negative = cytotoxicity
COc1cc2nc(NC(=O)c3ccc(S(=O)(=O)N4CCCC4)cc3)sc2cc1OC | inactive: 1.65%
O=C(COCc1cc(-c2ccc3c(c2)OCO3)on1)N1CCN(c2cccc(C(F)(F)F)c2)CC1 | inactive: -28.3%
Cc1ccc(C)c(NC2=C(c3ccc(C(F)(F)F)cc3)C(=O)c3ccccc32)c1 | inactive: -24.3%
COc1ccccc1C(=O)NCCc1csc(-c2ccc(C(F)(F)F)cc2)n1 | inactive: 9.54%
COc1cc(NC(=O)Cn2c(=O)n(CC3CCCO3)c(=O)c3cc(OC)c(OC)cc32)cc(OC)c1 (centres undefined) | inactive: 19.1%
CCOCCc1nn2c(=O)cc(COC(=O)c3ccc(NC(=O)c4ccc(F)cc4)cc3)nc2s1 | inactive: -6.13%
CCc1ccc(C2CC(=O)N(c3cccc(C(F)(F)F)c3)C3=C2C(=O)OC3)cc1 (centres undefined) | inactive: 5.86%
COc1ccc2c(CNC3CCC(C)CC3)c(C(=O)O)n(Cc3ccccc3)c2c1 (centres undefined) | inactive: 27.7%
CC(=O)N1CCc2cc(CNC(=O)Nc3ccccc3C(F)(F)F)ccc21 | inactive: -14.4%
COc1ccccc1CNS(=O)(=O)c1cc(-c2cc(C)no2)ccc1C | inactive: -3.15%
Cc1nn(CCCC(=O)NCCc2ccc(Cl)cc2)c(=O)c2nn(-c3ccccc3)c(C)c12 | inactive: -4.56%
O=C(NCc1cccc(Cl)c1)c1oc(=O)c2ccccc2c1-c1ccccc1 | inactive: 1.51%
COC(=O)c1ccc(NC(=O)c2nn(C)c3c2COc2ccccc2-3)cc1 | inactive: 2.53%
CCOc1ccc(OCC(=O)NCCS(=O)(=O)N2CCN(c3ccc(OC)cc3)CC2)cc1 | inactive: -0.823%
Cc1ccc(NC(=O)Cn2c(=O)n(CCc3ccccc3)c(=O)c3sc4ccccc4c32)cc1C | inactive: -1.49%
CCn1c(=O)c(C(=O)Nc2cc(OC)c(OC)c(OC)c2)nc2ccccc21 | inactive: 11.9%
COc1ccc(C2CC(=O)c3cc(-c4nc(-c5cccc([N+](=O)[O-])c5)cs4)c(=O)n(-c4ccccc4C)c3C2)cc1 (centres undefined) | inactive: 1.53%
Cc1ccc(-c2cc(NC(=O)COc3c(C)cc(C)cc3C)on2)cc1 | inactive: 0.821%
O=C(NCc1ccccc1F)c1cccc(NC(=O)N2CCSc3ncccc32)c1 | inactive: 18.5%
O=C(COc1ccccc1)NCCc1csc(-c2ccc(F)cc2)n1 | inactive: 8.95%
COc1ccc(CNC(=O)CCc2nc3cccnc3n2Cc2ccc(OC)cc2)cc1 | inactive: -1.88%
CCCCOc1ccc(Cn2c(=O)oc3ccccc32)cc1 | inactive: 1.71%
O=C(Cn1cc(S(=O)(=O)Cc2cccc(Cl)c2)c2ccccc21)Nc1ccc(F)c(Cl)c1 | inactive: 10%
O=C(CCCCn1c(=O)c2ccccc2n(Cc2ccccc2F)c1=O)NCc1ccc2c(c1)OCO2 | inactive: 19.9%

SMILES | activity change, negative = cytotoxicity
Cc1cc2oc(C(=O)N(Cc3ccc(N(C)C)cc3)CC3CCCO3)c(C)c2cc1C (centres undefined) | inactive: 11.4%
O=C(NCc1ccc(Cl)cc1)C1(c2cccs2)CCOCC1 | inactive: 8.22%
CCC1=Nc2cc(C(=O)NCCCOC(C)C)ccc2Sc2ccc(C)cc21 | inactive: -0.206%
COc1ccc(-c2noc(-c3cc(C(C)C)[nH]n3)n2)cc1 | inactive: -14.1%
CCN1CCc2c(sc(NC(=O)CSc3ccccc3)c2-c2nc3ccccc3s2)C1 | inactive: -22.8%
CCOc1ccc(CNC(=O)CN2C(=O)CSc3ccc(S(=O)(=O)N4CCOCC4)cc32)cc1OC | inactive: 25.4%
Cn1c(=O)cc(OCC(=O)N2CCN(c3ccccc3F)CC2)c2ccccc21 | inactive: 6.26%
Cc1ccc(CNC(=O)C2CCCN(c3nc4c(C)cc(C)cc4s3)C2)cc1 (centres undefined) | inactive: 0.629%
COC(=O)c1ccccc1NC(=O)CCn1nc(C)c2c(C)n(-c3ccccc3)nc2c1=O | inactive: -1.77%
Cc1ccc(OCCSc2nc3ccccc3n2CC(=O)N2CCCCC2)cc1C | inactive: 1.95%
O=C(Nc1ccc(NC(=O)c2cccs2)cc1)c1ccc(Cl)cc1 | inactive: 16.2%
COC(=O)c1ccccc1NC(=O)Cn1ncc2c(C)n(Cc3ccc(F)cc3)c(C)c2c1=O | inactive: -23.8%
CCCN1CCN(CC2=C(C(=O)OCC)C(c3cccc(OC)c3OC)NC(=O)N2)CC1 (centres undefined) | inactive: -13.2%
CCCCc1nn2c(=O)cc(COC(=O)c3ccc(NC(=O)c4cccc(OC)c4)cc3)nc2s1 | inactive: 7.03%
Cc1ccc(NC(=O)N2CCc3c(sc4c3CCCC4)C2c2ccccc2)cc1F (centres undefined) | inactive: 7.1%
CSc1ncc(C(=O)NCc2ccccc2Cl)c(C(F)(F)F)n1 | inactive: -3.1%
CCOc1cccc2sc(NC(=O)c3ccc(S(=O)(=O)N4CCc5ccccc54)cc3)nc12 | inactive: 16.3%
CCc1cccc(C)c1NC(=O)C(CC)Sc1nc2ccncc2[nH]1 (centres undefined) | inactive: 0.894%
Cc1cc(C)cc(NC(=O)N2CCN(C)c3ncccc32)c1 | inactive: 8.6%
Cc1ccc2c(CC(=O)Nc3ccc(S(=O)(=O)Nc4nc(C)cc(C)n4)cc3)coc2c1 | inactive: -1.45%
CCCCN(C)C(=O)c1ccc2c(c1)N(Cc1cccc(Cl)c1)C(=O)c1ccccc1S2=O (centres undefined) | inactive: -17.6%
CCOC(=O)CSc1nc2cc3c(cc2c(=O)n1CCCCCC(=O)NCc1ccc2c(c1)OCO2)OCO3 | inactive: 2.04%
